#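 48-hour exposure; five concentrations; linearly interpolated endpoints. GI50: concentration for 50% inhibition of growth.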 Some entries of the source have several records that differ or are many. This list holds those alone. The source may hold further records. For some of these results: The values listed for one entry repeat one measurement across runs, samples, wells, individuals or studies. What stands in brackets tells the records apart. Letters hold for one entry only.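 TGI denotes the concentration required for complete inhibition of growth.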 For some of these results: A record mostly stands for its own series of concentrations, which the source does not state; some values may only mark the edge of a range.
# How the values were obtained:
# Experiment in all cases: NCI-60 cell line screen, 48 h
# [1] = test system: MDA-MB-435
# [2] = test system: SR leukemia
# [3] = test system: NCI-H226 lung
# [4] = test system: UO-31 renal
# [5] = test system: SF-268 CNS
# [6] = test system: HL-60(TB) leukemia
# [7] = test system: SNB-75 CNS
# [8] = test system: T-47D breast
# [9] = test system: NCI-H23 lung
# [10] = test system: RPMI-8226 leukemia
# [11] = test system: K-562 leukemia
# [12] = test system: HCT-15 colon
# [13] = test system: MOLT-4 leukemia
# [14] = test system: CCRF-CEM leukemia
# [15] = test system: HT29 colon
# [16] = test system: UACC-257 melanoma
# [17] = test system: OVCAR-4 ovarian
# [18] = test system: SK-MEL-2 melanoma
# [19] = test system: LOX IMVI melanoma
# [20] = test system: SF-295 CNS
# [21] = test system: KM12 colon
# [22] = test system: U251 CNS
# [23] = test system: SK-MEL-28 melanoma
# [24] = test system: UACC-62 melanoma
# [25] = test system: HOP-92 NSCLC
# [26] = test system: DU-145 prostate
# [27] = test system: SK-MEL-5 melanoma
# [28] = test system: MALME-3M melanoma
# [29] = test system: HCT-116 colon
smiles,measurement,setting,value
COc1cc(/C=C2\CCC/C(=C\c3ccc(O)c(OC)c3)C2=O)ccc1O,TGI,[1],8.75 µM [sample A] and > 91.3 µM [sample B]
same,TGI,[2],> 100 µM [sample A] and 5.72 µM [sample B]
O=[N+]([O-])c1ccc(C(Cl)C(Cl)c2ccc(C(Cl)C(Cl)c3ccc([N+](=O)[O-])cc3[N+](=O)[O-])cc2)c([N+](=O)[O-])c1 (centres undefined),TGI,[3],7.33 µM and 605 nM
same,TGI,[4],10.3 µM and 957 nM
same,TGI,[5],45.2 µM and 3.97 µM
same,TGI,[6],> 62 µM and 309 nM
same,TGI,[7],> 62 µM and 3.72 µM
CC(C)(C)c1cc(NC(=O)Nc2ccc(-c3cn4c(n3)sc3cc(OCCN5CCOCC5)ccc34)cc2)no1,TGI,[8],"13.9 µM [sample A, 1 test] and 739 nM [sample B, mean of 2 tests] and 780 nM [sample C, 1 test]"
same,GI50,[9],"10.7 µM [sample A, mean of 2 tests] and 605 nM [sample B, mean of 2 tests] and > 10 µM [sample C, 1 test]"
same,GI50,[2],"9.86 µM [sample A, mean of 2 tests] and 421 nM [sample B, mean of 2 tests] and 1.51 µM [sample C, 1 test]"
same,TGI,[10],"26.9 µM [sample A, 1 test] and 2.32 µM [sample B, mean of 2 tests] and > 10 µM [sample C, 1 test]"
same,GI50,[11],"258 nM [sample A, mean of 2 tests] and > 10 µM [sample B, 1 test]"
same,GI50,[12],"14.2 µM [sample A, mean of 2 tests] and 811 nM [sample B, mean of 2 tests] and > 10 µM [sample C, 1 test]"
same,GI50,[13],"24.1 µM [sample A, 1 test] and 355 nM [sample B, mean of 2 tests] and 1.47 µM [sample C, 1 test]"
CCc1cnn2c(NCc3ccc[n+]([O-])c3)cc(N3CCCC[C@H]3CCO)nc12,TGI,[14],"< 10 nM [sample A, 1 test] and > 10 µM [sample B, mean of 2 tests]"
same,TGI,[1],"1.09 µM [sample A, mean of 2 tests] and 29 nM [sample B, mean of 2 tests]"
same,TGI,[15],"539 nM [sample A, mean of 2 tests] and > 10 µM [sample B, mean of 2 tests]"
same,TGI,[16],"38.2 nM [sample A, mean of 2 tests] and 445 nM [sample B, mean of 2 tests]"
same,TGI,[17],"106 nM [sample A, mean of 2 tests] and 1.53 µM [sample B, mean of 2 tests]"
COc1cccc(-c2cc(=O)c3cc(N4CCOCC4)ccc3[nH]2)c1,TGI,[3],188 nM and > 100 µM
same,TGI,[18],4.5 µM and > 100 µM
same,TGI,[19],2.23 µM and > 100 µM
same,TGI,[9],423 nM and > 100 µM
same,TGI,[10],7.98 µM and 589 nM
same,TGI,[20],314 nM and > 100 µM
same,TGI,[21],1.27 µM and > 100 µM
same,TGI,[22],2.58 µM and > 100 µM
same,TGI,[23],433 nM and > 100 µM
same,TGI,[24],807 nM and > 100 µM
same,TGI,[25],998 nM and > 100 µM
same,TGI,[26],855 nM and > 100 µM
same,TGI,[27],261 nM and > 100 µM
same,TGI,[28],260 nM and > 100 µM
same,TGI,[29],933 nM and > 100 µM

# — PubChem BioAssay (NCI)
